According to patent US20260166128A1, “HUMAN AMYLIN ANALOG, AND DERIVATIVE THEREOF AND USE THEREOF” (priority 2022, published 2026):
At least one peptide structure holds a part that was inferred or is arguable (an end, a ring closure or a residue). Numbered stars: 1 amine (or outer) side, 2 acyl side, 3 side chain; on linkers, the order of the positions; unused ones are H or OH. Bridge positions count the residues as written; N and C are the ends. Square brackets hold non-standard residues; d marks the D form. Side chains are listed from the residue outwards. Peptide text beside a SMILES is read from it. * marks the point of attachment. ξ: configuration not given here. C20 diacid = O=C(O)CCCCCCCCCCCCCCCCCCC(=O)*; γGlu = O=C(O)[C@H](CCC(=O)[*:2])N[*:1]; Hyp = O=C(O)[C@@H]1C[C@@H](O)CN1; αMeP = C[C@@]1(C(=O)O)CCCN1; Pip = O=C(O)[C@@H]1CCCCN1; ξαMeP = CC1(C(=O)O)CCCN1; Aze = O=C(O)[C@@H]1CCN1

What was measured:
[1] = Freeze-thaw stability of derivatives (freeze-thaw yield by liquid chromatography); format: physicochemical; conditions: for Dissolution property: appearance after dissolution at 0.2 mg/ml in 20 mM phosphate buffer solution (PB) (pH 7.0); for Freeze storage property: appearance after overnight storage at −20° C. and thawing to room temperature, 0.2 mg/ml in 20 mM PB (pH 7.0); for Freeze storage yield: concentration of polypeptide after freezing and thawing / concentration before, by liquid chromatography, −20° C. overnight
Method in brief: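 Freeze-thaw yield is the ratio of peptide concentration after versus before one overnight −20° C freeze and room-temperature thaw, both quantified by RP-HPLC of supernatant after centrifugation. Samples were 0.2 mg/ml freeze-dried derivative in 20 mM PB, pH 7.0.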

human amylin receptor = target: T1, human amylin receptor (Homo sapiens, UniProt O60896+P30988); experiment: Luciferase assay of amylin derivatives in amylin receptor/CRE-luc CHO cell line; format: cell-based; conditions: CHO-K1/Ga15/AMY3 CRE-luc cells, 24 hours incubation, F12 medium containing 10% FBS
T1 construct: host or cells: CHO-K1/Ga15/AMY3 cells, further stably transfected with a CRE-luciferase plasmid
T1 sequence (P30988 25-474): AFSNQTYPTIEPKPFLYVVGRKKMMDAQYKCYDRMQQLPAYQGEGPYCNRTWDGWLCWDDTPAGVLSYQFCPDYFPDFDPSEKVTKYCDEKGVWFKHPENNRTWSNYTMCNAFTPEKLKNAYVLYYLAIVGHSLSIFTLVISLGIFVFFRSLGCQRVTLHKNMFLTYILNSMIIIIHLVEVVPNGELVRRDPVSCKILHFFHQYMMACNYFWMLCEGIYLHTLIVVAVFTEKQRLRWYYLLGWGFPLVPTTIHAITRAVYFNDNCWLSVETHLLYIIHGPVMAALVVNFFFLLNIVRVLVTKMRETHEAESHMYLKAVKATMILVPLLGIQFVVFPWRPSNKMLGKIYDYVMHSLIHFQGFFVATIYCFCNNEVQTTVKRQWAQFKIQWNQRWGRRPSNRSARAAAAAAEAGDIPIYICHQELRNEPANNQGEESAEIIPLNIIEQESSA
T1 sequence (O60896 24-148 partner): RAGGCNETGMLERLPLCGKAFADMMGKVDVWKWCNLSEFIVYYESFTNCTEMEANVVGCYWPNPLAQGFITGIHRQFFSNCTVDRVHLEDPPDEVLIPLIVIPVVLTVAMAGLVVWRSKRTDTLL

SMILES | Dissolution property [1] | Freeze storage property [1] | Freeze storage yield [1] [%] | EC50 (human amylin receptor) [nM]
CC[C@H](C)[C@H](NC(=O)[C@@H]1CCCN1C(=O)[C@H](CCCCNC(=O)CC[C@H](NC(=O)CCCCCCCCCCCCCCCCCCC(=O)O)C(=O)O)NC(=O)[C@H](CC(C)C)NC(=O)[C@H](CC(N)=O)NC(=O)[C@H](CC(N)=O)NC(=O)[C@H](CO)NC(=O)[C@H](CO)NC(=O)[C@H](Cc1c[nH]cn1)NC(=O)[C@H](CCCNC(=N)N)NC(=O)[C@H](CC(C)C)NC(=O)[C@H](Cc1ccccc1)NC(=O)[C@H](CCC(=O)O)NC(=O)[C@H](C)NC(=O)[C@H](CC(C)C)NC(=O)[C@H](CCCNC(=N)N)NC(=O)[C@H](CCC(N)=O)NC(=O)[C@@H](NC(=O)[C@H](C)NC(=O)[C@@H]1CSSC[C@H](NC(=O)[C@@H](N)CCCNC(=N)N)C(=O)N[C@@H](CC(N)=O)C(=O)N[C@@H]([C@@H](C)O)C(=O)N[C@@H](C)C(=O)N[C@@H]([C@@H](C)O)C(=O)N1)[C@@H](C)O)C(=O)N[C@@H](CC(C)C)C(=O)N1CCC[C@H]1C(=O)N1CCC[C@H]1C(=O)N[C@H](C(=O)N[C@@H](CC(N)=O)C(=O)N[C@H](C(=O)NCC(=O)N[C@@H](CO)C(=O)N[C@@H](CC(N)=O)C(=O)N[C@H](C(=O)N1C[C@H](O)C[C@H]1C(N)=O)[C@@H](C)O)C(C)C)[C@@H](C)O [PD051] (H-RCNTATCATQRLAEFLRHSSNNLK([γGlu-C20 diacid])PILPPTNVGSNT[Hyp]-NH2; disulfide 2-7) | Clear | Clear | 99.71 | 0.039
CC[C@H](C)[C@H](NC(=O)[C@@H]1CCCN1C(=O)[C@H](CCCCNC(=O)CC[C@H](NC(=O)CCCCCCCCCCCCCCCCCCC(=O)O)C(=O)O)NC(=O)[C@H](CC(C)C)NC(=O)[C@H](CC(N)=O)NC(=O)[C@H](CC(N)=O)NC(=O)[C@H](CO)NC(=O)[C@H](CO)NC(=O)[C@H](Cc1c[nH]cn1)NC(=O)[C@H](CCCNC(=N)N)NC(=O)[C@H](CC(C)C)NC(=O)[C@H](Cc1ccccc1)NC(=O)[C@H](CCC(=O)O)NC(=O)[C@H](C)NC(=O)[C@H](CC(C)C)NC(=O)[C@H](CCCNC(=N)N)NC(=O)[C@H](CCC(N)=O)NC(=O)[C@@H](NC(=O)[C@H](C)NC(=O)[C@@H]1CSSC[C@H](NC(=O)[C@@H](N)CCCNC(=N)N)C(=O)N[C@@H](CC(N)=O)C(=O)N[C@@H]([C@@H](C)O)C(=O)N[C@@H](C)C(=O)N[C@@H]([C@@H](C)O)C(=O)N1)[C@@H](C)O)C(=O)N[C@@H](CC(C)C)C(=O)N1CCC[C@H]1C(=O)N1CCC[C@H]1C(=O)N[C@H](C(=O)N[C@@H](CC(N)=O)C(=O)N[C@H](C(=O)NCC(=O)N[C@@H](CO)C(=O)N[C@@H](CC(N)=O)C(=O)N[C@H](C(=O)N1CCCC[C@H]1C(N)=O)[C@@H](C)O)C(C)C)[C@@H](C)O [PD057] (H-RCNTATCATQRLAEFLRHSSNNLK([γGlu-C20 diacid])PILPPTNVGSNT[Pip]-NH2; disulfide 2-7 (inferred); N-terminus assumed) | Clear | Clear | 99.70 | 0.793
CC[C@H](C)[C@H](NC(=O)[C@@H]1CCCN1C(=O)[C@H](CCCCNC(=O)CC[C@H](NC(=O)CCCCCCCCCCCCCCCCCCC(=O)O)C(=O)O)NC(=O)[C@H](CC(C)C)NC(=O)[C@H](CC(N)=O)NC(=O)[C@H](CC(N)=O)NC(=O)[C@H](CO)NC(=O)[C@H](CO)NC(=O)[C@H](Cc1c[nH]cn1)NC(=O)[C@H](CCCNC(=N)N)NC(=O)[C@H](CC(C)C)NC(=O)[C@H](Cc1ccccc1)NC(=O)[C@H](CC(=O)O)NC(=O)[C@H](C)NC(=O)[C@H](CC(C)C)NC(=O)[C@H](CCCNC(=N)N)NC(=O)[C@H](CCC(N)=O)NC(=O)[C@@H](NC(=O)[C@H](C)NC(=O)[C@@H]1CSSC[C@H](NC(=O)[C@@H](N)CCCNC(=N)N)C(=O)N[C@@H](CC(N)=O)C(=O)N[C@@H]([C@@H](C)O)C(=O)N[C@@H](C)C(=O)N[C@@H]([C@@H](C)O)C(=O)N1)[C@@H](C)O)C(=O)N[C@@H](CC(C)C)C(=O)N1CCC[C@H]1C(=O)N1CCC[C@H]1C(=O)N[C@H](C(=O)N[C@@H](CC(N)=O)C(=O)N[C@H](C(=O)NCC(=O)N[C@@H](CO)C(=O)N[C@@H](CC(N)=O)C(=O)N[C@H](C(=O)N1CCCC[C@H]1C(N)=O)[C@@H](C)O)C(C)C)[C@@H](C)O [PD058] (H-RCNTATCATQRLADFLRHSSNNLK([γGlu-C20 diacid])PILPPTNVGSNT[Pip]-NH2; disulfide 2-7 (inferred); N-terminus assumed) | Clear | Clear | 98.34 | 0.319
CC[C@H](C)[C@H](NC(=O)[C@@H]1CCCN1C(=O)[C@H](CCCCNC(=O)CC[C@H](NC(=O)CCCCCCCCCCCCCCCCCCC(=O)O)C(=O)O)NC(=O)[C@H](CC(C)C)NC(=O)[C@H](CC(N)=O)NC(=O)[C@H](CC(N)=O)NC(=O)[C@H](CO)NC(=O)[C@H](CO)NC(=O)[C@H](Cc1c[nH]cn1)NC(=O)[C@H](CCCNC(=N)N)NC(=O)[C@H](CC(C)C)NC(=O)[C@H](Cc1ccccc1)NC(=O)[C@H](CCC(=O)O)NC(=O)[C@H](C)NC(=O)[C@H](CC(C)C)NC(=O)[C@H](CCCNC(=N)N)NC(=O)[C@H](CCC(N)=O)NC(=O)[C@@H](NC(=O)[C@H](C)NC(=O)[C@@H]1CSSC[C@H](NC(=O)[C@@H](N)CCCNC(=N)N)C(=O)N[C@@H](CC(N)=O)C(=O)N[C@@H]([C@@H](C)O)C(=O)N[C@@H](C)C(=O)N[C@@H]([C@@H](C)O)C(=O)N1)[C@@H](C)O)C(=O)N[C@@H](CC(C)C)C(=O)N1CCC[C@H]1C(=O)N1CCC[C@H]1C(=O)N[C@H](C(=O)N[C@@H](CC(N)=O)C(=O)N[C@H](C(=O)NCC(=O)N[C@@H](CO)C(=O)N[C@@H](CC(N)=O)C(=O)N[C@H](C(=O)N1CC[C@H]1C(N)=O)[C@@H](C)O)C(C)C)[C@@H](C)O [PD059] (H-RCNTATCATQRLAEFLRHSSNNLK([γGlu-C20 diacid])PILPPTNVGSNT[Aze]-NH2; disulfide 2-7 (inferred); N-terminus assumed) | Clear | Clear | 103.57 | 0.939
CC[C@H](C)[C@H](NC(=O)[C@@H]1CCCN1C(=O)[C@H](CCCCNC(=O)CC[C@H](NC(=O)CCCCCCCCCCCCCCCCCCC(=O)O)C(=O)O)NC(=O)[C@H](CC(C)C)NC(=O)[C@H](CC(N)=O)NC(=O)[C@H](CC(N)=O)NC(=O)[C@H](CO)NC(=O)[C@H](CO)NC(=O)[C@H](Cc1c[nH]cn1)NC(=O)[C@H](CCCNC(=N)N)NC(=O)[C@H](CC(C)C)NC(=O)[C@H](Cc1ccccc1)NC(=O)[C@H](CCC(=O)O)NC(=O)[C@H](C)NC(=O)[C@H](CC(C)C)NC(=O)[C@H](CCCNC(=N)N)NC(=O)[C@H](CCC(N)=O)NC(=O)[C@@H](NC(=O)[C@H](C)NC(=O)[C@@H]1CSSC[C@H](NC(=O)[C@@H](N)CCCNC(=N)N)C(=O)N[C@@H](CC(N)=O)C(=O)N[C@@H]([C@@H](C)O)C(=O)N[C@@H](C)C(=O)N[C@@H]([C@@H](C)O)C(=O)N1)[C@@H](C)O)C(=O)N[C@@H](CC(C)C)C(=O)N1CCC[C@H]1C(=O)N1CCC[C@H]1C(=O)N[C@H](C(=O)N[C@@H](CC(N)=O)C(=O)N[C@H](C(=O)NCC(=O)N[C@@H](CO)C(=O)N[C@@H](CC(N)=O)C(=O)N[C@H](C(=O)N1CCC[C@@]1(C)C(N)=O)[C@@H](C)O)C(C)C)[C@@H](C)O [PD063] (H-RCNTATCATQRLAEFLRHSSNNLK([γGlu-C20 diacid])PILPPTNVGSNT[αMeP]-NH2; disulfide 2-7 (inferred); N-terminus assumed) | Clear | Clear | 107.52 | 0.101
CC[C@H](C)[C@H](NC(=O)[C@@H]1CCCN1C(=O)[C@H](CCCCNC(=O)CC[C@H](NC(=O)CCCCCCCCCCCCCCCCCCC(=O)O)C(=O)O)NC(=O)[C@H](CC(C)C)NC(=O)[C@H](CC(N)=O)NC(=O)[C@H](CC(N)=O)NC(=O)[C@H](CO)NC(=O)[C@H](CO)NC(=O)[C@H](Cc1c[nH]cn1)NC(=O)[C@H](CCCNC(=N)N)NC(=O)[C@H](CC(C)C)NC(=O)[C@H](Cc1ccccc1)NC(=O)[C@H](CC(=O)O)NC(=O)[C@H](C)NC(=O)[C@H](CC(C)C)NC(=O)[C@H](CCCNC(=N)N)NC(=O)[C@H](CCC(N)=O)NC(=O)[C@@H](NC(=O)[C@H](C)NC(=O)[C@@H]1CSSC[C@H](NC(=O)[C@@H](N)CCCNC(=N)N)C(=O)N[C@@H](CC(N)=O)C(=O)N[C@@H]([C@@H](C)O)C(=O)N[C@@H](C)C(=O)N[C@@H]([C@@H](C)O)C(=O)N1)[C@@H](C)O)C(=O)N[C@@H](CC(C)C)C(=O)N1CCC[C@H]1C(=O)N1CCC[C@H]1C(=O)N[C@H](C(=O)N[C@@H](CC(N)=O)C(=O)N[C@H](C(=O)NCC(=O)N[C@@H](CO)C(=O)N[C@@H](CC(N)=O)C(=O)N[C@H](C(=O)N1CCCC1(C)C(N)=O)[C@@H](C)O)C(C)C)[C@@H](C)O (stereo partly drawn) [PD064] (H-RCNTATCATQRLADFLRHSSNNLK([γGlu-C20 diacid])PILPPTNVGSNT[ξαMeP]-NH2; disulfide 2-7 (inferred); N-terminus assumed) | Clear | Clear | 103.04 | 0.055
